Reference: PubChem BioAssay AID2147 (National Center for Advancing Translational Sciences (NCATS), 2009)
Hit rate of the full screen: of about 230,000 compounds, about 3,600 (1.6%) were called active. The inconclusive results got no clear call from the source; some entries with a clear call stand among them for comparison. The call rests on the fitted dose curve; in most records, active means well fitted inhibition curve with a large enough effect (not every such curve was filed as active); inconclusive means small, poorly fitted or top-dose-only effect, or another doubt; inactive means no such curve, though single readings can be large or run the other way. Potencies of inconclusive entries are doubtful fits and often do not repeat.

Molecular target: Lysine-specific demethylase 4E (Homo sapiens) (UniProt B2RXH2)
Experiment: qHTS Assay for Inhibitors of Human Jumonji Domain Containing 2E (JMJD2E)
Details: JMJD2E catalytic domain, FDH-coupled NADH fluorescence (FDH is formaldehyde dehydrogenase); series mostly up to 57.1 µM
Further: nearly all actives have a fitted effect of over 50% in size.
Potency means the concentration at half of the fitted maximal effect; tags describe the fitted curve by direction and shape.

Sequence of UniProt B2RXH2 (B2RXH2 whole entry, looked up, the tested form may be a part): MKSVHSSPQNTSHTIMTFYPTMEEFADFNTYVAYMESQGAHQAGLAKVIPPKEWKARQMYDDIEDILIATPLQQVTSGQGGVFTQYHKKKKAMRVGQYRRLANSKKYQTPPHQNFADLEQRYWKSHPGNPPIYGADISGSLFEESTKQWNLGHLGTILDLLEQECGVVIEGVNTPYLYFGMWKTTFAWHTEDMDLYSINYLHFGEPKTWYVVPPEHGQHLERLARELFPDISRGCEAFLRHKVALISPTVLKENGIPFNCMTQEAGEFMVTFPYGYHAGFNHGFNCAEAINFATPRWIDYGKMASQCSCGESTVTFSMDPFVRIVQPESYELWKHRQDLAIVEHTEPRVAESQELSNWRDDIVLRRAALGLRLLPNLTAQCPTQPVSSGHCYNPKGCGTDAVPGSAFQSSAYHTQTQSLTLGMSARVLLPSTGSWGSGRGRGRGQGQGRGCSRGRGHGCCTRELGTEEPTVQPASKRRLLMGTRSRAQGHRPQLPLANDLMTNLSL

SMILES	Potency
CC1=CC2C(C)(C)CC(=O)C[C@]2(C)CC1COc1ccc2c(c1)CC(=O)C=C2 (some centres not stated)	inconclusive: 31.6 µM [inhibitor, partial curve]
O=S(=O)(c1ccccc1)N1N=C(c2ccccc2)CC1c1ccccc1 (configuration not stated)	inactive
Cc1ccc(C2Nc3ccc4ccccc4c3C3=C2C(=O)CC(C)(C)C3)o1 (configuration not stated)	inconclusive: 12.6 µM [inhibitor, partial curve]
CCOC(=O)c1c(C2COc3ccccc3O2)csc1NC(=O)c1ccco1 (configuration not stated)	inconclusive: 35.5 µM [inhibitor, partial curve]
Cn1c(=O)c(=O)n(C)c2cc(S(=O)(=O)N3CCCCC3)ccc21	inconclusive: 31.6 µM [inhibitor, single point]
COc1ccc(OC)c(C(=O)COC(=O)c2cc(C)oc2C)c1	inconclusive: 39.8 µM [inhibitor, single point]
CC(=O)N=c1c(C#N)cc2c(=O)n3ccccc3nc2n1CCCOC(C)C	inconclusive: 3.55 µM [inhibitor, full curve]
CSc1nnc(-c2cc3c(-c4ccccc4)nn(C)c3s2)n1C	inconclusive: 25.1 µM [inhibitor, partial curve]
CCCc1ccc(O)c(N=Cc2cc(Br)cc(OCC)c2O)c1	active: 15.8 µM
Cc1cc(C)c2sc(NNC(=O)C3COc4ccccc4O3)nc2c1 (configuration not stated)	inconclusive: 39.8 µM [inhibitor, single point]
C=CCN1N=C(/C=C/c2ccc(C)cc2)CCC1=O	inactive
O=C(COc1ccc2ccccc2c1)Nc1ccc2c3c(cccc13)CC2	inconclusive: 39.8 µM [inhibitor, single point]
COc1cccc(N2CCN(Cc3cccnc3)CC2)c1	inconclusive: 39.8 µM [inhibitor, single point]
Brc1ccc(-c2nnc(-c3ccccc3)o2)o1	inconclusive: 28.2 µM [inhibitor, partial curve]
CCOC(=O)Cc1c(C)nc2cc(-c3ccc(C(C)(C)C)cc3)[nH]n2c1=O	inconclusive: 7.94 µM [inhibitor, full curve]
O=C(CN1CCN(c2ccccc2)CC1)Nc1cccc([N+](=O)[O-])c1	inactive
COC(=O)C/C=C/[C@@H](C)[C@H](NC(=O)OCC(Cl)(Cl)Cl)c1ccc2ccccc2c1	inactive
O=C(O)CN1CCN(Cc2ccccc2)C1=O	inactive
Cc1ccc(/C=C/C(=O)N2CCN(c3cccc(C(F)(F)F)c3)CC2)cc1	inactive
CCCNc1nc(C)cc(-c2cc(C(=O)NCc3ccccc3)on2)n1	inconclusive: 39.8 µM [inhibitor, single point]
COc1ccc(-c2[nH]c3ccccc3c2SCCN)cc1	inconclusive: 25.1 µM [inhibitor, partial curve]
Cc1nc(SCC(=O)NC(=O)NC2CCCCC2)nc(C)c1C	inactive
Cc1ccc(C(c2nnnn2CC2CCCO2)N2CCN(Cc3ccccc3)CC2)cc1 (configuration not stated)	inconclusive: 25.1 µM [inhibitor, partial curve]
O=C(O)C1C2C=CC(O2)C1C(=O)NCCCn1ccnc1 (configuration not stated)	inconclusive: 3.16 µM [inhibitor, full curve]

SMILES	Potency
COc1ccc2nc(/C=N/NC(=O)[C@@H]3CCCN3C(=O)OC(C)(C)C)ccc2c1	inconclusive: 28.2 µM [inhibitor, partial curve]
Cc1ccc(C(=O)Nc2ccccc2-c2ccccc2)o1	inconclusive: 35.5 µM [inhibitor, single point]
O=S(=O)(Nc1cccc(-c2cn3cccnc3n2)c1)c1ccc(Cl)cc1	inconclusive: 31.6 µM [inhibitor, partial curve]
Nc1nc2c(C(=O)N3CCOCC3)nnn2c2ccccc12	inconclusive: 28.2 µM [inhibitor, partial curve]
COc1ccc(CNC(C)C2COc3ccccc3O2)c(OC)c1 (configuration not stated)	inactive
CN(CCNC(=O)c1cc2c(=O)n(C)c3ccccc3c2n1C)Cc1ccccc1	inconclusive: 28.2 µM [inhibitor, partial curve]
c1ccc(Cn2c(NCc3ccccn3)nc3ccccc32)cc1	inactive
CCC(=O)Nc1ccc(C(=O)Cn2ncc(Cl)c(Cl)c2=O)cc1	inactive
Cc1cc(C)nc(Sc2ncnc3sc4c(c23)CCC4)n1	inconclusive: 28.2 µM [inhibitor, partial curve]
Cc1cc(-c2nc3cccnc3s2)ccc1NS(=O)(=O)c1cccs1	inconclusive: 35.5 µM [inhibitor, partial curve]
COc1ccc(OC)c(C2CC(=O)Nc3c2c(=O)[nH]c2ncnn32)c1 (configuration not stated)	inconclusive: 35.5 µM [inhibitor, single point]
Cc1ccc2nc3c(c(C(=O)OC4CCOC4=O)c2c1)CCCC3 (configuration not stated)	inconclusive: 25.1 µM [inhibitor, partial curve]
O=C(Nc1nc2c(F)cc(F)cc2s1)c1ccccn1	inactive
O=C(CC1S/C(=N\S(=O)(=O)c2ccccc2)N(c2ccccc2)C1=O)Nc1ccc(F)cc1 (configuration not stated)	inactive
CCCCc1[nH]c(=O)c(C#N)c2c1CCCC2	inconclusive: 31.6 µM [inhibitor, partial curve]
O=C(NCc1ccccc1)C1=C[C@H](c2ccc3c(c2)OCO3)C[C@H](OCCCCO)O1	inconclusive: 31.6 µM [inhibitor, single point]
N#C/C(=C(/O)COC(=O)CSc1ccc2ccccc2c1)c1nc2ccccc2[nH]1	inconclusive: 28.2 µM [inhibitor, single point]
CCN=c1scc(C)n1/N=C/c1ccc(O)c(O)c1O	active: 11.2 µM
CCOC(=O)C1CCN(Cc2ccc(O)c3ncccc23)CC1	active: 8.91 µM
CCC(C(=O)N1CCN(c2cccc(Cl)c2)CC1)c1ccccc1 (configuration not stated)	inactive
CCC(c1nnnn1CC1CCCO1)N(CCCO)Cc1cc2cccc(C)c2[nH]c1=O (configuration not stated)	inconclusive: 35.5 µM [inhibitor, single point]
CCCCCCCn1c(=N)n(CC(O)c2ccco2)c2ccccc21 (configuration not stated)	inactive
N#C/C(=C(O)\C=C\c1ccccc1)c1nc2ccccc2[nH]1	inconclusive: 39.8 µM [inhibitor, single point]
